# The full ranking holds about 33,000 sequences; the median of “E-score (-0.5 to 0.5)” is about -0.043, and the highest 2% start at about 0.37. The list shows a part of the results.
# Molecular target: T1, Upc2 (UniProt Q12151)
# T1 sequence: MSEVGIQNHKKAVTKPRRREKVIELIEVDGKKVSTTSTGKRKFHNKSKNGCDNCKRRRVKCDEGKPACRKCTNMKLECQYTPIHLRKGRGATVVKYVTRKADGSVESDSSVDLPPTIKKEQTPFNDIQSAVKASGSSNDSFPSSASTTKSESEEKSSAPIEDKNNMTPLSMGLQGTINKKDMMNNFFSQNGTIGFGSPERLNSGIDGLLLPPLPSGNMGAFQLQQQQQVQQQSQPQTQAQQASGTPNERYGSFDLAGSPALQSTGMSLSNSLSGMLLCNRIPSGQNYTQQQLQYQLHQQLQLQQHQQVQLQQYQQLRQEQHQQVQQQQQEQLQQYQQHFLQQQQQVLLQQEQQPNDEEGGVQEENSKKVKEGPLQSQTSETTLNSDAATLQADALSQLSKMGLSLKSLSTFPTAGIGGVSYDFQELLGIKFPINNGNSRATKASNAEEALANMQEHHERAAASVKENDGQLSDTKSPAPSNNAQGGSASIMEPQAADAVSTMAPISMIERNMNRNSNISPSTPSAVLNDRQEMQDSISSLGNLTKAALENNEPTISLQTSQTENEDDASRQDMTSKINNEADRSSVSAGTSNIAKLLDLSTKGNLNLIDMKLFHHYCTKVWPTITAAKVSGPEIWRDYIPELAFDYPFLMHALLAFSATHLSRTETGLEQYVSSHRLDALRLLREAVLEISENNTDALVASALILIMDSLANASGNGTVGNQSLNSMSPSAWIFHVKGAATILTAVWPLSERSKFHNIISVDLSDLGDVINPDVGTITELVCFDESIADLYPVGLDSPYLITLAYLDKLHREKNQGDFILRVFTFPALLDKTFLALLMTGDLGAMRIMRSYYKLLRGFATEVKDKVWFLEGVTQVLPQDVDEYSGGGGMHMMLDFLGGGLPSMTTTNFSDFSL
# Experiment: PBM E-score (8-mer binding enrichment) (E-score (-0.5 to 0.5)); higher = stronger / more preferred TF binding; most listed sequences are background and not binding sites
# Conditions: protein concentration: 200 nM; construct: GST-full length
# Summary of the method: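 PURExpress in vitro transcription/translation supplied GST-tagged yeast transcription factors, either full-length or DNA-binding domain. Applied at about 100-200 nM to universal all-10-mer Agilent arrays double-stranded by primer extension, the bound protein was detected with fluorescent anti-GST. E-scores, modified Wilcoxon-Mann-Whitney statistics, were given by the Universal PBM Analysis Suite to ungapped eight-base words pooled with their reverse complements after masliner normalisation.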
row,Sequence,PBM E-score
1,CGTTAATC,0.313
2,AGGTAAAT,-0.0588
3,CGGGGCTC,0.0719
4,GGTGATAA,-0.0686
5,GGGAATAC,0.0625
6,GGATGCCA,-0.287
7,GGTCAGTA,0.0222
8,ACAGTCTA,0.0492
9,CCACTTGA,-0.0806
10,TAGCACTA,-0.239
11,GCTATTAC,0.109
12,ATCTCTGA,-0.252
13,CCTAACCG,0.19
14,CAAAACGG,0.0742
15,GCTCTTCC,-0.203
16,AAACCGAC,0.168
17,ACTTGAAG,-0.124
18,ATTCATCG,0.0233
19,CGTGCCGC,0.152
20,ACACTGAG,-0.17
21,TCATAAAA,-0.0566
22,CCGCGGGC,-0.239
23,CTAAATGA,-0.233
24,AAGCCCTC,-0.0182
25,AAAGTGGT,-0.073

row,Sequence,PBM E-score
1,ACACATAC,0.0349
2,ATCAAGCC,0.0113
3,GGACTGAA,-0.158
4,CCAGTGTC,-0.137
5,AGCGGTTC,-0.0168
6,ACACCTAA,0.0608
7,ACGGAATG,-0.026
8,CAGAAACA,0.0123
9,GCAAACTA,-0.0021
10,AATCCGAT,0.0689
11,AGCGATGC,0.176
12,GCGTGGCC,-0.153
13,ATTGGTAA,-0.111
14,ACAGATGA,-0.0657
15,AACACCCT,-0.191
16,ACGGGGAA,0.23
17,AAACCAGA,-0.0146
18,CTTCATCC,-0.177
19,AGAATCAT,-0.0914
20,CTCGAGCA,-0.0107
21,CGGCCTTA,-0.0891
22,ACAAGTGC,-0.11
23,GAAATATA,0.127
24,CAAGAGAG,-0.125
25,CGCCTGTC,-0.0785

row,Sequence,PBM E-score
1,CAGTCAGG,-0.185
2,ATCGTCAG,-0.224
3,CTACTGCA,-0.135
4,ATCACTGA,-0.109
5,CAGGCCGG,-0.197
6,ACGAAATA,0.362
7,GCCGTACC,0.379
8,TAGATACA,-0.00949
9,AAGGCGTC,-0.134
10,AACCACAG,-0.212
11,GTCGAGGA,-0.226
12,ACCATGCC,-0.252
13,CCCTCATC,-0.0575
14,CTGTAAAG,-0.0138
15,CATGCGAA,0.14
16,CAGTCCGA,-0.176
17,CCGTGGAG,-0.212
18,CCTGCCCA,-0.36
19,ATTGTGAG,-0.196
20,AATAGACG,0.0504
21,CCTCGCAG,-0.14
22,ACGCCAAT,0.201
23,CCTATAGC,-0.286
24,ACGTCATA,0.0692
25,AACTGCCA,-0.0631

row,Sequence,PBM E-score
1,AGCGCATA,0.0812
2,CGCTCAGA,0.121
3,CCTTCGGA,0.154
4,AGCATACG,0.353
5,ATCCCACG,-0.166
6,CTTAGGTC,0.0323
7,CTCACTAA,-0.0103
8,CTAATATC,-0.0311
9,GCCAGATA,-0.0886
10,ACCATCAA,-0.0348
11,CCGTCAGC,-0.231
12,AACGGTCA,0.188
13,GCAGGGCC,-0.114
14,CGACTTTC,0.0358
15,GCACAGTA,0.0761
16,CATGGGAC,-0.193
17,CGCAAGAA,0.109
18,CCGAGACG,0.179
19,AACTGCCG,0.026
20,GCAAGAAA,-0.107
21,ATCGTATC,0.426
22,AATACCGG,-0.153
23,AGTCCTTG,-0.224
24,GATGGCAA,0.00691
25,GGACGGAC,-0.0787

row,Sequence,PBM E-score
1,TAAAGCTA,-0.0839
2,CGCCGCTA,-0.0277
3,AGTGCCCA,-0.137
4,GATTAGAC,-0.0209
5,GCACATGC,-0.2
6,GGTGCTAC,-0.18
7,CCGGATTA,-0.208
8,AGCGGACC,-0.0433
9,CTGTCGCA,0.0616
10,ATAACGGC,0.123
11,ATTGCTTA,-0.0541
12,ACCAGAAT,-0.00733
13,ACACATCG,0.093
14,CATAAACG,0.462
15,GGCGTCAA,-0.153
16,ACCCGCAT,0.0404
17,ATTTTGTG,-0.0311
18,CCACAGCG,-0.302
19,GCCCGCCA,-0.144
20,CAGCTTAG,-0.256
21,ATTTGCAC,-0.0529
22,ATACTCAC,0.0254
23,CGTACATC,0.352
24,ATGAGGGG,-0.299
25,GAGTAAGC,-0.176

row,Sequence,PBM E-score
1,CACAATGG,-0.089
2,CATCATTA,-0.0416
3,TTATATAA,0.0964
4,GAGCATGC,-0.248
5,AGCGGCGG,0.101
6,AGCATATA,0.0134
7,CGCCCCAG,-0.162
8,CCTTGATC,-0.241
9,ACATGAAG,-0.15
10,CCAACTGC,-0.118
11,ACAGCGGA,-0.212
12,AAGCGGGA,-0.0154
13,CACCGAGA,-0.124
14,AACCGCAC,-0.00368
15,CTCTACAA,-0.0244
16,GGGTCAGA,-0.0313
17,AGATACAA,0.0173
18,ACGGGGCT,0.0759
19,CTAATCAG,-0.0725
20,GTTGATTA,0.0537
21,CAGCACAA,0.0156
22,ACAAGAAC,0.152
23,CCGCCATC,-0.248
24,TATCTACA,-0.0779
25,GAGGTAAC,-0.0391

row,Sequence,PBM E-score
1,CGCGGCCA,-0.215
2,GTAGCTTA,0.112
3,CATCCTCC,0.0461
4,AGAACTTG,-0.0432
5,AATGGCTG,-0.0827
6,AAGCCAGC,-0.115
7,CTTCTATC,-0.158
8,CCGGCCTA,-0.0726
9,CAACCCTA,-0.0238
10,ATAGTCGC,0.093
11,CGTGGCTC,-0.0748
12,ATGTGAGA,-0.26
13,ATTACTCG,0.151
14,ATACTGTG,0.0426
15,ATCATTAC,-0.00039
16,CCGCATTC,-0.132
17,ACCACTCA,-0.0387
18,CCTCGCCC,0.127
19,AGAGTTTC,-0.154
20,GAACCCTA,0.042
21,CAGGAGTA,-0.157
22,CGGATTTC,0.00143

# From the supplement of paper PMC3334620
